One test deals with human and mouse ADAM10. As to the kind of experiment: ELISA-based assays, human and mouse ADAM10 (data not shown). Format: binding.
The target in the next test is T1, human ADAM19 D+C (Homo sapiens, UniProt Q9H013).
T1 construct: The human ADAM19 D+C construct (438-646); Fc-tag (C); made in house; host or cells: HEK293 cells (same mammalian expression system)
T1 sequence (Q9H013 438-646): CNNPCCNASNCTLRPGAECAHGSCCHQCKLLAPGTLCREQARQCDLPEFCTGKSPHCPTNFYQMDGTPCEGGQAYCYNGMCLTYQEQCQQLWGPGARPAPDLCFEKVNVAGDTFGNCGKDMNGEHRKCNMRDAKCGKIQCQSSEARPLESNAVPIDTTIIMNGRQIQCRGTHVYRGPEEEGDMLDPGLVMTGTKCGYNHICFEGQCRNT
Description: ELISA, 1H5 IgG binding to human ADAM19 D+C. The following applies: FIG. 2 Panel E. The source says: (§1) Panels A-C show characterization of the fully human 1H5 Fab. […] [Lane 1: Low molecular weight standards (Bio-Rad). Lane 2: bead bound murine 8C7 immunoglobulin G (IgG)+ADAM10 D+C. […] Lane 4: bead bound ADAM10 D+C without any pre-bound mAb. Lane 5: ADAM10 D-f-C input]

Test [1] concerns the target T2, ADAM10 expressed on the cell surface of colon cancer cell lines LIM1215 and COLO205 (Homo sapiens, UniProt O14672).
T2 construct: ADAM10 expressed on the cell surface of colon cancer cell lines LIM1215 and COLO205; endogenous in cells; host or cells: LIM1215 and COLO205 cells, paraformaldehyde-fixed
T2 sequence (O14672 214-748): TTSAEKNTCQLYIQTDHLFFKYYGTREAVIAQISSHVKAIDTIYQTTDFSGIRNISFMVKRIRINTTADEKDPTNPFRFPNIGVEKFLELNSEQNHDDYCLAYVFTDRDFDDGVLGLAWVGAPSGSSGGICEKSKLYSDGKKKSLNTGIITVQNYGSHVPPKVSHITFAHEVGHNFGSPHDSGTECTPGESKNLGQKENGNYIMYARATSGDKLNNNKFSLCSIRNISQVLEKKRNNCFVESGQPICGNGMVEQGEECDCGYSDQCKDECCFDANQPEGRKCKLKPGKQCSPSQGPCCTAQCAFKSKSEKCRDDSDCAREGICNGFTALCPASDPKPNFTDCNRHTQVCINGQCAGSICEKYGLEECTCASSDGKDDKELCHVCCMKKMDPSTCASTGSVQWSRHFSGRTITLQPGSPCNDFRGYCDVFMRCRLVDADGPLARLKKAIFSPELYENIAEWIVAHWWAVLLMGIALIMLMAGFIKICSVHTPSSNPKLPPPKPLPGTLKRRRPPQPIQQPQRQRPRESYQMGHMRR
Description: Cell-based ELISA, binding relative to mAb1427. The following applies: vs ADAM10 endogenously expressed or overexpressed on HEK293. The source says: COLO205, as well as HEK293 cells and HEK293 cells transfected with human ADAM10, as described in Example 6. […] Specifically, on the Y axes is plotted the value of:
The data represent triplicate determinations and two independent experiments, mean±SEM; P<0.001 by unpaired two-tailed Student's t-test (cancer cell lines vs HEK293 cells).
The mAb1427 was shown previously to not be conformation specific (Atapattu et al., 2012; Atapattu et al., 2016).
Briefly, 5×10^4 cells/well were immobilized on 96-well ELISA plates (Greiner bio-one) with 1% paraformaldehyde for 2 hours at 37° C. The plate was washed thrice with PBS and blocked for 2 hours at room temperature with 4% non-fat dry milk. The anti-ADAM10 mAbs were added in varying concentrations. […] For the commercial mAb1427 recognizing human ADAM10, goat anti-mouse IgG (H+L) secondary antibody conjugated to HRP was used. The data was recorded at 450 nm.

The next test deals with U-87MG. Description: Alamar blue cell viability assay, U-87MG. Format: cell-based. Particulars: 20 μg/ml. The method, then:
(§2) For the Alamar blue cell viability assays, the cells were harvested in the log phase of growth (after 3 days of culturing). The cell count was determined and was adjusted to 5×10^4 cells/ml. […] The cells were allowed to grow for an additional 38 hours. Cells not treated with 1H5 were used as a control. Alamar Blue (10% of the well volume) was added aseptically. Cultures containing Alamar Blue were incubated for 6 hours, and cell proliferation was measured spectrophotometrically by absorbance at 570 and 600 nm. Cell viability was calculated using the following formula:
(§3) O1=molar extinction coefficient (E) of oxidized alamarBlue® (Blue) at 570 nm, O2=E of oxidized alamarBlue® at 600 nm, A1=absorbance of test wells at 570 nm, A2=absorbance of test wells at 600 nm, P1=absorbance of positive growth control well (cells plus AamarBlue® but no test agent) at 570 nm, P2=absorbance of positive growth control well (cells plus AlamarBlue® but no test agent) at 600 nm (O'Brien et al., 2000).

In the next test the test system is HT-29. As to the kind of experiment: Alamar blue cell viability assay, HT-29. The format is cell-based. The method, then: as §2, §3
In a further test the target is T3, human (h) ADAM10 D+C (Homo sapiens, UniProt O14672).
T3 construct: human ADAM10 D+C (455-650); Fc-tag (human); made in house; host or cells: baculovirus-infected Hi5 insect cells
T3 sequence (O14672 455-650): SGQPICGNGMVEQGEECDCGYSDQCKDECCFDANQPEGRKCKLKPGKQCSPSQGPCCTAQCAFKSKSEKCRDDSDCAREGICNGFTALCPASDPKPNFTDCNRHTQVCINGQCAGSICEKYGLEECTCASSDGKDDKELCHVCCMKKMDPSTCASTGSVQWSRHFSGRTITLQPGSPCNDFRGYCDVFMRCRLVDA
As to the kind of experiment: ELISA, 1H5 IgG binding to immobilized human ADAM10 D+C. Particulars: FIG. 2 Panel E.
Description: as §1

The subject of the next test is COLO205. Description: Alamar blue cell viability assay, COLO205. The format is cell-based, human. The following applies: COLO205, 20 μg/ml. The method, then: as §2, §3
For another test, the system named is human APP. Description: Western blot of APP shedding in U2OS cells transfected with human APP. The format is cell-based. The following applies: 31 nM to 1 μM. Here is the method:
U2OS cells transiently transfected with human APP releases the extracellular portion of APP to the media.
The release of sAPPα in the presence of varying concentrations of IHigG/Fab (31 nM to 1 μM) was evaluated using Western blotting. The Western blots were quantitated using the software Image J and glyceraldehyde 3-phosphate dehydrogenase (GAPDH) as loading control. A vector control was included and U20S cells transfected with APP, but untreated, was used to calculate the fold increase in shedding.

B1: 1H5: fully human anti-ADAM10 antibody clone; heavy chain SEQ ID NO: 14, light chain SEQ ID NO: 15 (antibody)
heavy: QVQLVESGGGLVKPGGSLRLSCAASGFTFSDYYMSWIRQAPGKGLEWVSYISSSGSTIYYADSVKGRFTISRDNAKNSLYLQMNSLRAEDTAVYYCARDFYDSKIFDYWGQGTLVTVSS[human IgG1 constant region left out]
light: DIQMTQSPSSLSASVGDRVTITCRASQSISSYLNWYQQKPGKAPKLLIYAASSLQSGVPSRFSGSGSGTDFTLTISSLQPEDVGVYYCMEGLKTPFTFGPGTKLEIKRTVAAPSVFIFPPSDEQLKSGTASVVCLLNNFYPREAKVQWKVDNALQSGNSQESVTEQDSKDSTYSLSSTLTLSKADYEKHKVYACEVTHQGLSSPVTKSFNRGEC
As for B1, the “binding to human versus mouse ADAM10” value in the test on human and mouse ADAM10 was “binding equally well to human and mouse ADAM10”. The “binding to human ADAM19 D+C” value in the test with human ADAM19 D+C is “but not to”. Further, in test [1], the “binding to ADAM10 on human colon cancer cell lines compared to HEK293 cells” value was “preferentially binds”. The inhibition in the test with U-87MG and in the test with COLO205 was 60-70% in each case. Moreover, in the test on HT-29, the “growth of colon cancer cell line” value was “inhibited growth”. Further, the “binding to immobilized human ADAM10 D+C” value with human (h) ADAM10 D+C is “binds specifically”. Besides, in the test with human APP, the sAPPα shedding result is listed as “increase”.

Values taken from patent US20260167677A1, “ANTI-ADAM10 ANTIBODIES AND USES IN TREATMENT OF CANCER” (Memorial Sloan Kettering Cancer Center, priority 2022, published 2026).
